Measurements published in PubChem BioAssay AID504374 (National Center for Advancing Translational Sciences (NCATS), 2011).
The campaign covered roughly 1,500 compounds. About 100 (6.7%) were called active. Roughly 7% stayed inconclusive and do not appear here. Calls follow the shape of the dose curve; as a rule, active = well fitted inhibition curve with a large enough effect; inconclusive = small, poorly fitted or top-dose-only effect, or effect the other way; inactive = flat fitted curve, though single readings scatter. The list shows a part of the results.

molecular target: Runt-related transcription factor 1 (Homo sapiens) + Core-binding factor subunit beta (Homo sapiens) (UniProt Q01196+Q13951); assay: qHTS Assay for Compounds Blocking the Interaction Between CBF-beta and RUNX1 for the Treatment of Acute Myeloid Leukemia: Hit Validation; details: AlphaScreen CBFb-His/RUNX1-biotin binding; series mostly up to 59.8 µM; activity, negative = inhibition: at the top concentration; also: nearly all actives have a fitted effect of over 60% in size
Sequence of UniProt Q01196 (Q01196 whole entry, looked up): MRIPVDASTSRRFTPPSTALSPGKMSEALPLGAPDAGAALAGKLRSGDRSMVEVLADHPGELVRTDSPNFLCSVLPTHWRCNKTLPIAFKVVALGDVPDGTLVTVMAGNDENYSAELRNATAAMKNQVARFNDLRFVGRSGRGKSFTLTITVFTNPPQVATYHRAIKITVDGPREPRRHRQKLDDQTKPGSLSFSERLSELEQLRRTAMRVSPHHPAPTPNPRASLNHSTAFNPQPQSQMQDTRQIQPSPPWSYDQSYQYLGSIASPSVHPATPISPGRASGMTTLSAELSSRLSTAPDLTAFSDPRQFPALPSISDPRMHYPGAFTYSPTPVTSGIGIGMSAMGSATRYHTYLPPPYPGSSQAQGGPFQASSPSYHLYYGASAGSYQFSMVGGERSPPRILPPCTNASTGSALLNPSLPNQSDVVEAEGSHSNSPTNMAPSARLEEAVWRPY
Sequence of UniProt Q01196 (Q13951 whole entry, looked up): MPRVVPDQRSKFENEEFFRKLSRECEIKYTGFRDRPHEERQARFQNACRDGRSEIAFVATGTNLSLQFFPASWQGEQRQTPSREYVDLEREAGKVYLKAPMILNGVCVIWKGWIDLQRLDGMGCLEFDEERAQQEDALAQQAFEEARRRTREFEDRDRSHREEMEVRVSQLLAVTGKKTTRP
Description: NIH Chemical Genomics Center [NCGC]
NIH Molecular Libraries Probe Production centers Network [MLPCN]
Assay Submitter (PI): Paul Liu
Core Binding Factor (CBF) abnormalities are associated with 20-25% of all acute myeloid leukemias (AML), of which 5-10% are further sub classified as acute myelomonocytic leukemia with eosinophilia, also known as M4Eo in the FAB classification scheme. This subtype of leukemia is usually associated with chromosome 16 inversion (p13:q22). Chromosome 16 inversion results in formation of the fusion oncogene CBFB-MYH11, which encodes the fusion protein CBF-beta-SMMHC.
It has been hypothesized that the interference of CBF-beta and RUNX1 binding could have therapeutic implications for patients with CBF mediated leukemias. We developed a CBF-beta and RUNX1 binding assay in AlphaScreenTM format and optimized it for high throughput screening to search for inhibitors. The goal of this project is to screen MLPCN's compound collection (MLSMR) for identifying the inhibitors of the interaction between CBF-beta and RUNX1 proteins as research probes. If these probes work well in the animal models, the ultimate goal of this project is to development a new drug treatment for this disease.
This assay can not be used to assess how apparent inhibitors interfere with protein binding, and whether inhibitors specifically bind to either protein. Disruption of this protein-protein interaction, through any mechanism, is the intended target activity.
The present data set was run to confirm the activity of hits from the primary screen.
NCGC Assay Protocol Summary:
Step, Parameter, Description
(1) Reagent, 3 uL CBFb-His/RUNX1-biotin mix incubated together for 20 minutes at room temperature (30 nM each)
(2) Compound or control, 23 nL compound stock solution
(3) Incubation, 15 minutes at Room temperature
(4) Reagent, 1 uL 50 ng each of beads (Nickel beads and streptavidin beads)
(5) Incubation, 90 minutes at Room temperature
(6) Detection, Excitation=365 nm Emission=440 nm, Envision reader in AlphaScreenTM mode
Keywords: MLSMR, MLPCN, NIH Roadmap, qHTS, NCGC, Core binding factor, CBF, CBF-beta, Acute myeloid leukemia
% is scaled to controls: 0 for no effect and ±100 for the full control effect.

activity, negative = inhibition, inactive:
Cc1ccc(S(=O)(=O)N(C)C)cc1[N+](=O)[O-] -1.88%
O=S(=O)(c1ccc(C(F)(F)F)cc1)N1CCCN(c2ccc(C(F)(F)F)cn2)CC1 -5.62%
CC(=O)c1nnn(-c2ccc(F)cc2F)c1C 5.31%
CC(=O)Nc1ccc(S(=O)(=O)N2CCN(CC(=O)N3CCOCC3)CC2)cc1 4.41%
Nc1ccc2c(c1)nnn2-c1ccccc1 2.2%
Cc1cc(C)cc(NCCC#N)c1 6.26%
CCCc1cc(=O)c2ccc(OC/C(C)=N/O)cc2o1 0.225%
Cc1nc([N+](=O)[O-])cn1CC(O)c1ccc(Cl)cc1 (centres undefined) -1.69%
CC(C)(O)P(=O)(O)CCc1ccccc1 -8.04%
Cc1cc(NS(=O)(=O)c2ccc(NC(=O)CCSc3ccc(F)cc3)cc2)nc(C)n1 241%
CN1CCN(C(=O)C23CC4CC(C)(CC(C)(C4)C2)C3)CC1 -3.52%
CCC(=O)Nc1cccc(-c2cn3cccc(C)c3n2)c1 -4.22%
O=[N+]([O-])c1cc(Cl)cc2c1nc(NCCO)c1ccccc12 -21.2%
Cc1nc2c(c(=O)c3ccccc3n2C)c(=O)n1-c1ccccc1 -3.86%
CCOC(=O)C1=C(N)Oc2c(oc(CO)cc2=O)C1c1ccc(Cl)cc1 (centres undefined) -3.45%
COC(=O)c1scc(C)c1NC(=O)/C=C/C(=O)O 3.12%
COc1cccc(/C=N/NC(=O)c2cnccn2)c1OC -3.28%
CC(=O)c1sc(-c2ccccc2)cc1NS(=O)(=O)c1ccc(C)cc1 -6.62%
Cc1onc(-c2c(Cl)cccc2Cl)c1C(=O)c1ccc(F)cc1 -2.65%
O=C(CS(=O)(=O)c1ccc(C(F)(F)F)cn1)NNC(=O)c1ccccc1 0.626%
Cc1ccc(Cn2nc(C)cc2C(=O)Nc2ccc(Cl)cc2)cc1 -3.08%
COc1cccc(/C=N/NC(=O)Cn2nc([N+](=O)[O-])cc2C)c1 10.5%
COc1cc(N=Nc2ccccc2C(=O)O)ccc1O -12.8%
COc1cccc(C2Oc3ccccc3C3CC(c4cccs4)=NN32)c1 (centres undefined) 4.22%
COc1ccc(N/C=C/C(=O)c2ccc(OC)c(OC)c2)cc1 -2.67%
COc1cccc(/C=N/NC(=O)Cn2cnc3c2c(=O)n(C)c(=O)n3C)c1 4.69%
O=C(N/N=C/C(Br)=C/c1ccccc1)C(O)c1ccccc1 (centres undefined) -15.9%
CC1SCC(NC(=O)c2ccc(Cl)cc2)CS1 (centres undefined) 1.16%
O=[N+]([O-])c1cccnc1Oc1ccc(F)cc1 -0.561%
Cc1cc(=O)[nH]c(SCC(=O)NN(c2ccccc2)c2ccccc2)n1 -10.9%
CCN(CC)C(=O)CSc1nnc2nnc3cc(C)ccc3n12 -0.465%
O=C(O)c1ccccc1C(=O)Nc1ccccc1[N+](=O)[O-] 7%
COc1ccccc1N1C(=O)C=C(Sc2nc(C)cc(C)n2)C1=O -5.84%
COc1ccc(C(=O)CN2C(=O)c3ccccc3S2(=O)=O)cc1 -0.754%
COc1cc(/C=N/NC(=O)Cn2cnc3c2c(=O)n(C)c(=O)n3C)ccc1O -2.57%
COc1ccc(C2=NOC(CNC(=S)N3CCOCC3)C2)cc1 (centres undefined) -1.41%
O=C(Nc1ccc(Cl)cc1)NC1CCCCNC1=O (centres undefined) -3.89%
Oc1ccc(-c2nc3ccccc3s2)c(O)c1 26.7%
Cc1ccsc1/C=N/N1CCN(c2ccccn2)CC1 -19.6%
Cc1c(C(=O)/C=C/N(C)C)nnn1-c1ccc(Cl)cc1Cl -14.6%
CN(C)C(=O)CSc1nnc(NC(=O)CCc2ccccc2)s1 5.1%
COc1ccc(/C=C/C(=O)Oc2cc(O)cc(O)c2)cc1 4.56%
COc1ccc(S(=O)(=O)N2CCc3ccccc32)cc1C(=O)Nc1cccnc1 0.0512%
O=C(O)c1ccccc1Sc1ccccc1S(=O)(=O)NC1CCCCC1 -2.05%
N#CC1CC(c2ccccc2)Nc2cc(Cl)ccc2N1 (centres undefined) 26.8%
COc1ccc(/C=N/NC(=O)c2ccc3nc[nH]c3c2)cc1OC -0.42%
CN(C)c1cc(-c2ccc([N+](=O)[O-])cc2)oc(=O)c1Cl -16.8%
COc1ccc(C(=O)Nc2cccnc2Sc2ccc(Cl)cc2)cc1 6.71%
CC(C)Cn1c(=O)c2c(nc3n2CCS3)n(C)c1=O -0.346%
COc1ccccc1C(=O)Nc1ccc2c(c1)nc(CCNC(=O)c1ccccc1)n2C -2.44%
CCCCc1c(C)nc2cc(-c3ccco3)[nH]n2c1=O -6.15%
CCCCc1cc(=O)oc2c(C)c(OCc3nn[nH]n3)ccc12 -4.17%
CCCCNc1nc2sc3c(c2c(=O)n1-c1cccc(Cl)c1)CCN(C)C3 -4.32%
CC(/C=N/n1c(COc2ccccc2)n[nH]c1=S)=C\c1ccco1 -17.5%
COc1cc(/C=N/n2nnnc2N)cc(OC)c1OC 5.03%
CCOc1ccc2nc(N/C(N)=N/C(=S)Nc3cccc(OC)c3)nc(C)c2c1 -6.43%
CCOC(=O)C(=CNNc1c(C)csc1C(=O)OC)C(=O)OCC -2.1%
CC(C)NC(=O)Nc1cccc(Cl)c1 1.29%
Cc1nc(-c2cc(C#N)c(Sc3cccc(C(F)(F)F)c3)nc2C)cs1 2.16%
